# Reference: PubChem BioAssay AID504339 (National Center for Advancing Translational Sciences (NCATS), 2011)
# The campaign covered roughly 390,000 compounds. About 17,000 (4.4%) were called active. Inconclusive means that the source gave no clear call. Such entries were picked first, then a sample of the others. Calls follow the shape of the dose curve; as a rule, active = well fitted inhibition curve with a large enough effect; inconclusive = small, poorly fitted or top-dose-only effect; inactive = no such curve, though single readings can be large or run the other way. Potencies of inconclusive entries are doubtful fits and often do not repeat.
# Target: Lysine-specific demethylase 4A (Homo sapiens) (UniProt O75164)
# Chain of UniProt O75164 (O75164 whole entry, looked up, the tested form may be a part): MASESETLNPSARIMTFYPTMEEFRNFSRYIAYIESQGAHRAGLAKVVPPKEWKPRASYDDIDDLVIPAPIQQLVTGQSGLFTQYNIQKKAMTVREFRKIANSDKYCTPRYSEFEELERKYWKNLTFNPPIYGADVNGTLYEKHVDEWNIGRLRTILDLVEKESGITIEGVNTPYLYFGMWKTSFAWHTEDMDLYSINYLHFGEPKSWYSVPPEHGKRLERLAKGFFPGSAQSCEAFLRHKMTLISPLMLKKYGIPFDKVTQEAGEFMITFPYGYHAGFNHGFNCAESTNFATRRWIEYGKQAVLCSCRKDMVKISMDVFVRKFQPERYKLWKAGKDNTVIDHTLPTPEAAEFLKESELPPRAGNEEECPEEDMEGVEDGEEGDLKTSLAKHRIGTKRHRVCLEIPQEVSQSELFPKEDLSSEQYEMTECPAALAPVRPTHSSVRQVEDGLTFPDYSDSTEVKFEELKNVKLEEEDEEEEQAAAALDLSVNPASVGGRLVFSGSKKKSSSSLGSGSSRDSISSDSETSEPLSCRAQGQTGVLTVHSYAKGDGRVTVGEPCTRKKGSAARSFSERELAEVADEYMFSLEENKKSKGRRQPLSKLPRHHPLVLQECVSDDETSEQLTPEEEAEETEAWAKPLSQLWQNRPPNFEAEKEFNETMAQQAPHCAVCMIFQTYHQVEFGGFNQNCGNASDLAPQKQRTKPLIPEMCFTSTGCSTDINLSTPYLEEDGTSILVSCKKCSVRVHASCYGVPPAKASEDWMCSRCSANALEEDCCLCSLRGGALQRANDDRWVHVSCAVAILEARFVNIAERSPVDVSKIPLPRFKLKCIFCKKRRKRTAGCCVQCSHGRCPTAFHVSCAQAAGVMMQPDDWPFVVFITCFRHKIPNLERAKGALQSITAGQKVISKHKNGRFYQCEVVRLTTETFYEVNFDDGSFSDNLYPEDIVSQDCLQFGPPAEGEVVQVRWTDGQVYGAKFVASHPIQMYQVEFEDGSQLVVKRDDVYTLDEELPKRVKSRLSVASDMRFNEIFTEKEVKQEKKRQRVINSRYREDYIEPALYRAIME
# Assay: qHTS Assay for Inhibitors of JMJD2A-Tudor Domain; also: nearly all actives have a fitted effect of over 50% in size
# Conditions: AlphaScreen JMJD2A-Tudor / H3K4me3 peptide binding; activity change, negative = inhibition: at 114 µM (top of the series)
# % is scaled to controls: 0 for no effect and ±100 for the full control effect; potency is read from the fitted curve at half-maximal effect; tags tell the direction and shape of the fitted curve.
Compound,Potency,"activity change, negative = inhibition"
Cc1c(Cl)sn(-c2ccc(Cl)cc2)c1=O,active: 3.16 µM,–
O=C(CCN1C(=O)/C(=C/c2ccccc2)SC1=S)Nc1cccnc1,–,inactive: -1.4%
CCOc1ccccc1NC(=O)C(C)Sc1nc(-c2ccccc2)c(C#N)c(=O)[nH]1 (stereo not given),–,inactive: -27.5%
Cc1ccc2[nH]cc(C(=O)CCl)c2c1,"inconclusive: 89.1 µM [inhibitor, single point]",–
Cc1nc2c(C)cccn2c1/C(O)=C1\C(=O)C(=O)N(CCN(C)C)C1c1ccco1 (stereo not given),active: 22.4 µM,–
CC1(c2ccccc2)CC(C)(C)N(C(=O)CSc2nnc(N)s2)c2ccccc21 (stereo not given),"inconclusive: 56.2 µM [inhibitor, partial curve]",–
CO/N=C/c1ccc(Oc2ccc(C)cc2)nc1,"inconclusive: 89.1 µM [inhibitor, single point]",–
CCN(CCO)c1ccc(-n2c(N)c(C(=O)OC)c3nc4ccccc4nc32)cc1,active: 79.4 µM,–
CN(C)CCNS(=O)(=O)c1ccc(N2CCc3ccccc32)c([N+](=O)[O-])c1,"inconclusive: 56.2 µM [inhibitor, partial curve, poor fit]",–
COC(=O)c1cc([N+](=O)[O-])c(-n2cncn2)c([N+](=O)[O-])c1,"inconclusive: 56.2 µM [inhibitor, partial curve]",–
COc1ccc(OC)c(NC(=O)C(CC(=O)O)NCc2ccco2)c1 (stereo not given),active: 44.7 µM,–
COC(=O)c1ccc(NC(=O)CCc2nnc3ccc(NCc4ccco4)nn23)cc1,"inconclusive: 63.1 µM [inhibitor, partial curve]",–
Cc1cc(C(=O)COC(=O)c2ccc(O)cc2)c(C)n1CC(F)(F)F,"inconclusive: 50.1 µM [inhibitor, partial curve]",–
CCCS(=O)(=O)c1c(S(=O)(=O)CCC)c2c(N)cccn2c1C(=O)c1ccccc1,"inconclusive: 39.8 µM [inhibitor, partial curve]",–
CC(=O)c1c(C)[nH]c(C(=O)OCC(=O)Nc2ncc(Cl)c(C)c2Cl)c1C,–,inactive: -31.3% [at 57.1 µM]
CC(=O)c1ccc(-n2nnnc2SCC(=O)Nc2sc(C)c(C)c2C#N)cc1,"inconclusive: 39.8 µM [inhibitor, single point]",–
O=C(NCc1ccccc1CN1CCCCC1)c1ccc(Cl)cc1N1CCCC1=O,"inconclusive: 25.1 µM [inhibitor, single point]",–
CC[N+]1(C)CC2CCC(C)(C1)C2(C)C (stereo not given),active: 31.6 µM,–
C=CCn1c(NCc2c[nH]c3ccccc23)nc2ccccc21,"inconclusive: 79.4 µM [inhibitor, partial curve]",–
O=C(O)c1cc(S(=O)(=O)Nc2ccccc2Cc2ccccc2)ccc1Cl,–,inactive: -14.5%
